The campaign covered roughly 410,000 compounds. About 6,400 (1.6%) were called active. The shares of active, inactive and inconclusive entries below differ from those in the screen. The call rests on the fitted dose curve; in most records, active means well fitted inhibition curve with a large enough effect; inconclusive means small, poorly fitted or top-dose-only effect; inactive means no such curve, though single readings can be large or run the other way. A potency beside an inconclusive call is a rough fit, not a confirmed value.
molecular target: Glucagon-like peptide 1 receptor (Homo sapiens) (UniProt P43220); experiment: qHTS of GLP-1 Receptor Inverse Agonists (Inhibition Mode); conditions: HEK293 GLP-1R CRE-luciferase, luminescence, 24 h, GLP-1R form is constitutively active; activity change, negative = inhibition: at 38.3 µM (top of the series) unless noted; further: nearly all actives have a fitted effect of over 55% in size
UniProt P43220, sequence (P43220 whole entry, looked up): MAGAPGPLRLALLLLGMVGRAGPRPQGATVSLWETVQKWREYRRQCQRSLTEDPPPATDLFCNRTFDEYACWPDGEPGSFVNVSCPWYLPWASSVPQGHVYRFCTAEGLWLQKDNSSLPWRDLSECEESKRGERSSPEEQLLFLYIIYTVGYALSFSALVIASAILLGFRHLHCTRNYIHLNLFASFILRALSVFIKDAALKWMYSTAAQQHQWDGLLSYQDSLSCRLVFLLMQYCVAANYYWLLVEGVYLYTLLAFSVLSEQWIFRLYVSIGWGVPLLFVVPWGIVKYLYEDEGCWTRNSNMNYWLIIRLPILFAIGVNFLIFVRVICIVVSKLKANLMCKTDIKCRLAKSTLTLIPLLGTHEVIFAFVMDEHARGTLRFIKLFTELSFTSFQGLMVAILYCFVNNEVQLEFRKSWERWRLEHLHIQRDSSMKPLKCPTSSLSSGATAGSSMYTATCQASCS
Method in brief: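 HEK293 cells stably co-expressing a cAMP-responsive luciferase reporter and constitutively active GLP-1R were seeded, incubated 12 h, then exposed to compounds for 24 h at 37 C. Luminescence was read 12 min after detection reagent; inverse agonists lower signal.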
On the % scale 0 is the no-effect control and ±100 the full control effect; potency means the concentration at half of the fitted maximal effect; tags describe the fitted curve by direction and shape.

Potency, active:
N#CCCN(C(=O)CCl)c1cccc(Cl)c1 2.24 µM
Cc1[nH]c2ccccc2c1/C=N/Nc1ccc([N+](=O)[O-])cc1 2.82 µM

Potency, inconclusive:
CCCCS(=O)(=O)CC(COc1ccccc1)OC(=O)c1ccccc1 (stereo not given) 7.94 µM [inhibitor, partial curve, poor fit]
O=C(CCc1ccccc1)Nc1cc(Cl)ccc1O 28.2 µM [inhibitor, single point]
O=C(OC(c1ccccc1)c1nccc2ccccc12)c1cccc([N+](=O)[O-])c1 (stereo not given) 12.6 µM [inhibitor, single point]
COc1cc(C(=O)NCc2ccc(-c3nc4ccccc4s3)cc2)cc(OC)c1OC 28.2 µM [inhibitor, single point]
C=CCCN(C(CC(C)C)C(=O)OC)S(=O)(=O)c1ccccc1Br (stereo not given) 28.2 µM [inhibitor, single point]
O=C(Nc1ccc(Cl)cc1)c1ccc(-n2cncn2)c([N+](=O)[O-])c1 5.62 µM [inhibitor, partial curve, poor fit]
CCO[C@@H]1OC(C(=O)Nc2ccccc2)=C[C@H](c2ccc(Br)cc2)[C@H]1CCCO 12.6 µM [inhibitor, single point]
COc1ccc(NC(=O)c2cc(S(=O)(=O)NCC3COc4ccccc4O3)ccc2F)cc1 (stereo not given) 11.2 µM [inhibitor, partial curve, poor fit]
COc1ccccc1N1CCN(C(=O)c2ccc3c(=O)n(Cc4ccc5c(c4)OCO5)c(=O)[nH]c3c2)CC1 7.94 µM [inhibitor, partial curve, poor fit]
CCSC1=C(C#N)C(c2ccccc2Cl)CC(=O)N1 (stereo not given) 10 µM [inhibitor, single point]
O=C1CC(c2ccccc2F)c2cc3c(cc2N1)CCC3 (stereo not given) 3.16 µM [inhibitor, full curve, poor fit]
OCC(Cc1ccccc1)NCc1ccccc1C(F)(F)F (stereo not given) 11.2 µM [inhibitor, partial curve, poor fit]
Cc1ccc(S(=O)(=O)Oc2ccc(/C=N/NC(=O)c3cccnc3)cc2)cc1 12.6 µM [inhibitor, single point]
Cn1ccc2c(-c3ccc(C(C)(C)C)cc3)cc3c(c21)C1CCC3O1 (stereo not given) 14.1 µM [inhibitor, single point]
COc1ccc(CCC(=O)Nc2cccc(Cl)c2)cc1 28.2 µM [inhibitor, single point]
COc1ccccc1-c1nc2ccccc2nc1-c1ccccc1 10 µM [inhibitor, partial curve, poor fit]
CCOC(=O)C1CCN(C(=S)NC2CC3C=CC2C3)CC1 (stereo not given) 11.2 µM [inhibitor, single point]
O=C(c1ccc(S(=O)(=O)c2ccccc2Cl)c([N+](=O)[O-])c1)N1CCCCCC1 10 µM [inhibitor, partial curve, poor fit]
CCNCCC(=O)N1c2ccccc2Sc2ccc(NC(=O)OCC)cc21 12.6 µM [inhibitor, single point]
Cc1ccc(S(=O)(=O)N(C)C)cc1NC(=O)CCc1c[nH]c2ccccc12 14.1 µM [inhibitor, single point]
COc1ccc(/C=N/NC(=O)c2cccc(O)c2)cc1Cn1nc(C)c([N+](=O)[O-])c1C 7.08 µM [inhibitor, partial curve, poor fit]
O=C1CC(C(=O)N(c2cccc(F)c2)C(C(=O)NC2CCCC2)c2ccccn2)CS1 (stereo not given) 12.6 µM [inhibitor, single point]
FC(F)(F)c1cnc(NNC(=S)Nc2ccccc2)c(Cl)c1 28.2 µM [inhibitor, single point]
OC(c1cccc(Cl)c1)c1nc(-c2cnc3ccccc3c2)cs1 (stereo not given) 11.2 µM [inhibitor, single point]
O=C(C1CCN(c2ncnc3c2nc2n3CCCCC2)CC1)N1CCN(c2ccc(F)cc2)CC1 11.2 µM [inhibitor, partial curve, poor fit]
COc1cc(NC(=O)CCC(=O)c2cccs2)cc(OC)c1 28.2 µM [inhibitor, single point]
COc1ccc(/C=C2\CN(Cc3ccccc3)C/C(=C\c3ccc(OC)cc3OC)C2=O)c(OC)c1 8.91 µM [inhibitor, partial curve, poor fit]
O=c1[nH]c(=S)[nH]c2c1C(c1ccc(Cl)c(Cl)c1)OC(CCc1ccccc1)C2 (stereo not given) 12.6 µM [inhibitor, single point]
CCN(CC(=O)Nc1ccc(OC)cc1)C(=O)c1ccc(=O)n(Cc2ccccc2)n1 28.2 µM [inhibitor, single point]
c1ccc(COc2ncnc3c2ncn3CCCNCC(c2ccccc2)c2ccccc2)cc1 11.2 µM [inhibitor, partial curve, poor fit]

Activity change, negative = inhibition, inactive:
COc1cc(NC(=O)COC(=O)C2CC(O)CN2S(=O)(=O)c2ccc(Cl)cc2)c(C)cc1[N+](=O)[O-] (stereo not given) 10.9%
COc1ccccc1N1CCN(C(=O)CCc2nnc3n(C)c(=O)c4sccc4n23)CC1 -16.2%
COC(=O)[C@H](CCSC)NC(=O)NCc1ccccc1F -6.08%
CCc1ccc(NC(=O)Cn2c(=O)n(Cc3nc(-c4ccccc4)no3)c(=O)c3cc4c(cc32)OCO4)cc1 15.1%
Cc1ccc(N2C(=O)NC(NS(=O)(=O)c3ccc(Cl)cc3)(C(F)(F)F)C2=O)cc1C (stereo not given) -19.1%
Cc1ccnc(NCc2c(O)ccc3ccccc23)c1 -25.4%
Cc1ccc(S(=O)(=O)N(C)Cc2cc3cc(C)ccc3[nH]c2=O)cc1 12.5%
COc1cc(/C=N/N(C)C)ccc1OC(=O)c1ccco1 27.3%

— PubChem BioAssay AID624417 (National Center for Advancing Translational Sciences (NCATS), 2012)
